# Reference: PubChem BioAssay AID1745845 (National Center for Advancing Translational Sciences (NCATS), 2022)
# In all, about 360,000 compounds went through this assay and about 2,600 (0.72%) were called active. Inconclusive means that the source gave no clear call. Such entries were picked first, then a sample of the others. The call rests on the fitted dose curve; in most records, active means well fitted inhibition curve with a large enough effect; inconclusive means small, poorly fitted or top-dose-only effect; inactive means no such curve, though single readings can be large or run the other way. Potencies beside an inconclusive call are fits to weak or partial responses and may not hold up.
# Test: Primary qHTS for Inhibitors of ATXN expression; further: nearly all actives have a fitted effect of over 55% in size
# Details: HEK-293 ATXN2-luciferase reporter, luminescence, 24 h; activity change, negative = inhibition: at 57 µM (top of the series)
# Method in brief: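 ATXN2-luciferase reporter cells (luciferase flanked by upstream and downstream ATXN2 gene portions) were treated 24 h at 37 °C with compounds at up to 57 uM. SteadyGlo luminescence gave expression; GF-AFC fluorescence gave viability.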
# On the % scale 0 is the no-effect control and ±100 the full control effect; potency means the concentration at half of the fitted maximal effect; tags describe the fitted curve by direction and shape.
Structure (SMILES),Potency,"activity change, negative = inhibition"
Cc1ccc2[nH]cc(C(=O)CN3CCN(c4ccccc4F)CC3)c2c1,"inconclusive: 11.2 µM [inhibitor, partial curve, poor fit]",–
O=[N+]([O-])c1cc(Br)c(O)c(/C=N/Nc2nc3ccccc3s2)c1,"inconclusive: 12.6 µM [inhibitor, partial curve]",–
Cc1ccc(-c2nn3c(C)nnc3s2)cc1NC(=O)c1ccc(-c2ccc(Cl)cc2Cl)o1,active: 8.91 µM,–
COc1cc(C(=O)N/N=C(\Cc2ncc[nH]2)c2ccccc2)cc(OC)c1OC,"inconclusive: 18.9 µM [inhibitor, partial curve, poor fit]",–
Cc1ccc(-c2nnc(N3CCC(C)CC3)c3ccccc23)cc1C,"inconclusive: 37.7 µM [inhibitor, single point]",–
CC(C)(C)C(=O)Nc1ncc(C(F)(F)F)cc1Cl,–,inactive: -31.9%
Cc1ccnc(NC(=O)c2sc3ccccc3c2Cl)c1,–,inactive: -27.1%
CC1CCN(c2ccc(NC(=O)c3ccc([N+](=O)[O-])o3)cc2)CC1,–,inactive: 12.6%
CCCCCc1ccc(C(=O)CCC(=O)OCC(=O)N(CC)c2c(N)n(Cc3ccccc3)c(=O)[nH]c2=O)cc1,"inconclusive: 25.1 µM [inhibitor, single point]",–
Cc1ccc(-c2nc3ccc(Cl)cn3c2CC(C)(C)C)cc1,"inconclusive: 28.2 µM [inhibitor, single point]",–
Cc1cc(-n2[nH]c(C)c(C)c2=O)nc(-c2ccccc2O)n1,"inconclusive: 15 µM [inhibitor, partial curve, poor fit]",–
CC(C)[C@H](NC(=O)c1ccccc1F)C(=O)Nc1ccc(F)c(F)c1,–,inactive: 5.12%
Cn1nc(C(=O)NCCc2ccc(Cl)cc2)c2c1-c1ccccc1S(=O)(=O)C2,"inconclusive: 17.8 µM [inhibitor, partial curve, poor fit]",–
O=C(Cc1c(F)cccc1Cl)NCCCn1ccnc1,–,inactive: -3.78%
Nc1nonc1C(=O)N/N=C/c1ccc(-c2cccc([N+](=O)[O-])c2)o1,–,inactive: -11.4%
Cc1nc(SCc2cccc(C(=O)O)c2)nc2c1CCCC2,"inconclusive: 12.6 µM [inhibitor, partial curve, poor fit]",–
CC(C)Nc1ncnc2c1ncn2[C@H]1CN(Cc2ccc(-c3ccccc3)cc2)C[C@@H](CO)O1,"inconclusive: 15.8 µM [inhibitor, partial curve, poor fit]",–
O=C(c1cc(-c2cccc(O)c2)on1)N1CCCCC1,–,inactive: 26.9%
CC(C)(C)NC(=S)NCCc1ccccc1,–,inactive: 53.8%
CCC(C)NCCOc1ccc(Br)cc1 (centres undefined),"inconclusive: 39.8 µM [inhibitor, partial curve, poor fit]",–
CC1(C)CCN2CCC(C)(C)c3c(O)ccc1c32,active: 3.16 µM,–
COc1ccc2cc(-c3cc(C(=O)OCC(=O)NC4CCS(=O)(=O)C4)c4ccccc4n3)ccc2c1 (centres undefined),"inconclusive: 17.8 µM [inhibitor, single point]",–

Structure (SMILES),Potency,"activity change, negative = inhibition"
CCOC(=O)c1oc2ccc(Br)cc2c1COC(=O)C1=COCCO1,–,inactive: 81.8%
CC(=O)c1ccc(OCCCN2CCCCC2)cc1,–,inactive: 12%
CC(=O)Nc1cc(-c2cccc(NS(C)(=O)=O)c2)cn2c(-c3cccc(C(F)(F)F)c3)cnc12,"inconclusive: 31.6 µM [inhibitor, single point]",–
O=S(=O)(c1cccc(-c2csc(-c3cccnc3)n2)c1)N1CCOCC1,"inconclusive: 20 µM [inhibitor, partial curve, poor fit]",–
O=C(c1ccc(CS(=O)Cc2ccccc2Cl)o1)N1CCN(c2cccc(Cl)c2)CC1 (centres undefined),"inconclusive: 25.1 µM [inhibitor, single point]",–
Cc1ccc(NC(=O)CCC(=O)N2CCC(c3ccccc3)=N2)cc1S(=O)(=O)N1CCCCC1,"inconclusive: 39.8 µM [inhibitor, single point]",–
COc1ccc2cc(CN(CC3CCCO3)C(=S)Nc3ccccc3)c(=O)[nH]c2c1 (centres undefined),–,inactive: -28.8%
COc1ccc(NC(=O)c2ccc(S(=O)(=O)N(C)C)cc2)cc1OC,–,inactive: 3.35%
O=c1oc2ccccc2c(O)c1/C=C1\C=Nc2ccccc21,–,inactive: -9.71%
C[C@@H](c1ccccc1)N1C[C@@H](COCc2ccccc2)Oc2cc(N3CCC[C@H]3C(N)=O)ccc2S1(=O)=O,"inconclusive: 31.6 µM [inhibitor, partial curve, poor fit]",–
CNC(=O)c1c(NC(=O)c2ccc(S(=O)(=O)N3CCCc4ccccc43)cc2)sc2c1CCN(C)C2,"inconclusive: 7.94 µM [inhibitor, partial curve, poor fit]",–
CC(C)(C)OC(=O)NCCCCCNC(=O)c1nc[nH]c1C(=O)NCc1ccc(CNC(=O)OC(C)(C)C)cc1,active: 20 µM,–
CCCCCCSc1ccc([C@H]2N[C@@](C)(C(=O)OC)[C@H]3C(=O)N(C)C(=O)[C@@H]23)cc1,"inconclusive: 35.5 µM [inhibitor, single point]",–
Cc1ccc(S(=O)(=O)CCC(=O)c2cccc([N+](=O)[O-])c2)cc1,"inconclusive: 39.8 µM [inhibitor, single point]",–
CCOC(=O)N1CCN(C(=O)c2ccc3c(c2)N(Cc2ccc(F)cc2)CCS3)CC1,"inconclusive: 37.7 µM [inhibitor, single point]",–
CCN1CCCC1CN (centres undefined),–,inactive: 2.25%
O=C(Nc1ccc(N2CCOCC2)c(S(=O)(=O)Nc2ccc(Cl)cc2)c1)c1ccc(=O)[nH]n1,"inconclusive: 39.8 µM [inhibitor, single point]",–
O=C(C=CC=Cc1ccc2c(c1)OCO2)N1CCCCC1,–,inactive: 45.9%
CC(C)C1C(=O)N(Cc2cn(CCC3OCCO3)nn2)CCS(=O)(=O)N1Cc1ccc(-c2ccccc2C(F)(F)F)cc1 (centres undefined),"inconclusive: 39.8 µM [inhibitor, single point]",–
C=C1C(=O)[C@]23C[C@H]1CCC2[C@@]1(C)C(C[C@@H]3O)[C@](C)(C(=O)OC)CC[C@@H]1O (some centres undefined),active: 1.58 µM,–
COC(=O)Cc1ccc(OCC(=O)Nc2ccc(OC(F)(F)F)cc2)cc1,–,inactive: -6.45%
COc1cc2c(cc1OC)C(COc1cc(C)cc(C)c1)N(C(=O)COc1ccccc1)CC2 (centres undefined),"inconclusive: 39.8 µM [inhibitor, single point]",–
